Structures can show the parent of a compound that is named as a salt. Some of the results follow. No stated cut-off is given here; in the data, active = 0.5 or less and inactive = the rest. Repeats are few or missing, and single values can be far off.

For one test, the system named is HeLa VPS33A reporter cells. Kind of test: relative cell viability (CellMask signal) vs DMSO (fraction of DMSO); higher = less cytotoxic. As to conditions: 50 µM; 24 h.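 Further: primary screen of an FDA-approved drug library in HeLa reporter cells in 96-well format, CellMask signal normalized to DMSO-treated wells set as 1, under 0.5 deemed highly cytotoxic.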
For `CNS(=O)(=O)Cc1ccc2[nH]cc(CCN(C)C)c2c1` [Sumatriptan Succinate], the relative cell viability is 0.969.
Regarding `COc1nc(C)cnc1NS(=O)(=O)c1cccnc1-c1ccc(-c2nnco2)cc1` [Zibotentan (ZD4054)], the relative cell viability is 0.967.
Still for that read-out and setting: under `Cc1[nH]c(/C=C2\C(=O)Nc3ccccc32)c(C)c1CCC(=O)O` [TSU-68 (SU6668,Orantinib)] stands 0.949.
Same read-out and setting: to `COC(=O)[C@H](c1ccccc1Cl)N1CCc2sccc2C1` [Clopidogrel] belongs 0.571; to `N[C@@H](CCC(=O)N[C@@H](CS)C(=O)NCC(=O)O)C(=O)O` [L-Glutathione Reduced], 1.03; to `COc1ccc(/C=C\c2cc(OC)c(OC)c(OC)c2)cc1OP(=O)(O)O` [Fosbretabulin (Combretastatin A4 Phosphate (CA4P)) Disodium], 0.567.
In turn, `C=C1CC[C@H](O)C/C1=C/C=C1\CCC[C@]2(C)[C@@H]([C@H](C)/C=C/[C@H](C)C(C)C)CC[C@@H]12` [Vitamin D2 (Ergocalciferol)] gave a relative cell viability of 1.19.
With `OC[C@@H](O)[C@@H](O)[C@H](O)[C@H](O)CO` [D-Mannitol], the relative cell viability was determined as 0.903.
In the case of `Cc1ccc(C(C)C)c(O)c1` [Thymol], the relative cell viability came to 0.98.
On the same count and under the same terms, under `COc1ccc([C@@H]2Sc3ccccc3N(CCN(C)C)C(=O)[C@@H]2OC(C)=O)cc1` [Diltiazem HCl] stands 0.96; under `COCCCOc1ccnc(C[S+]([O-])c2nc3ccccc3[nH]2)c1C` (configuration not stated) [Rabeprazole], 1.01.
Still for that read-out and setting: under `COC(=O)Nc1nc2cc(C(=O)c3ccccc3)ccc2[nH]1` [Mebendazole] stands 0.734.
Compound `COc1c(O)cc2c(c1O)[C@@H]1O[C@H](CO)[C@@H](O)[C@H](O)[C@H]1OC2=O` [Bergenin] gave a relative cell viability of 1.02.
The same measure, in the same setting: to `Cc1nc2c([nH]1)-c1ccccc1N(C(=O)c1ccc(NC(=O)c3ccccc3-c3ccccc3)cc1)CC2` [Conivaptan HCl] belongs 1.25; to `O=C(NCC1CCCCN1)c1cc(OCC(F)(F)F)ccc1OCC(F)(F)F` (configuration not stated) [Flecainide acetate], 1.16; to `CNC(=C[N+](=O)[O-])NCCSCc1csc(CN(C)C)n1` [Nizatidine], 1.2.
Same read-out and setting: to `NCCCC(O)(P(=O)(O)O)P(=O)(O)O` [Alendronate sodium] belongs 1.4; to `Cc1[nH]c(=O)c(C#N)cc1-c1ccc2nccn2c1` [Olprinone Hydrochloride], 1.21.
Compound `COc1cc(C2Oc3cc([C@H]4Oc5cc(O)cc(O)c5C(=O)[C@@H]4O)ccc3OC2CO)ccc1O` (some centres not stated) [Silymarin] showed a relative cell viability of 1.02.
Still for that read-out and setting: under `O=C1CCc2ccc(OCCCCN3CCN(c4cccc(Cl)c4Cl)CC3)cc2N1` [Aripiprazole] stands 1.03; under `COc1cc2nccc(Oc3ccc(NC(=O)C4(C(=O)Nc5ccc(F)cc5)CC4)cc3)c2cc1OC` [Cabozantinib malate (XL184)], 1.27.
Still for that read-out and setting: to `Cc1cccc(C)c1NC(=O)C1CCCCN1C` (configuration not stated) [Mepivacaine HCl] belongs 0.947.
Still for that read-out and setting: to `O=C(NC[C@H](O)CO)c1ccncc1Nc1ccc(I)cc1F` belongs 0.951.
Take `CCCCCCOC(=O)NC(=N)c1ccc(NCc2nc3cc(C(=O)N(CCC(=O)OCC)c4ccccn4)ccc3n2C)cc1`: the relative cell viability worked out at 1.3.
The same measure, in the same setting: to `CCCOC(=O)c1ccc(O)cc1` [Propylparaben] belongs 1.05.
Same read-out and setting: to `CC(C)c1nc(N(C)S(C)(=O)=O)nc(-c2ccc(F)cc2)c1/C=C/[C@@H](O)C[C@@H](O)CC(=O)O` [Rosuvastatin Calcium] belongs 1.08; to `C[C@]12CCC(=O)C=C1CC[C@@H]1[C@@H]2[C@@H](O)C[C@@]2(C)[C@H]1CC[C@]2(O)C(=O)CO` [Hydrocortisone], 0.997.

The test system of another test is HeLa VPS33A R498W KI + HA-SDC1-FLAG. Nature of the test: relative GAG core protein HA-SDC1 amount per cell number vs DMSO (fraction of DMSO); HeLa model of a glycosaminoglycan (GAG) storage disease; KI is knock-in and KO knock-out; SDC1 is syndecan 1; higher = more SDC1 (GAG core protein). As to conditions: 50 µM; 24 h.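 Further: HA-SDC1 level read out by In-Cell Western staining with an anti-HA antibody against the N-terminal tag, screening FDA-approved library drugs.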
Turning to `CC=CC(=O)N(CC)c1ccccc1C` [Crotamiton], the “relative GAG core protein HA-SDC1 amount per cell number” value was inactive: 0.807.
The same measure, in the same setting: to `CCn1cc(C(=O)O)c(=O)c2cnc(N3CCCC3)nc21` [Piromidic Acid] belongs inactive: 0.791; to `NS(=O)(=O)NCCNc1nonc1/C(=N/O)Nc1ccc(F)c(Br)c1`, inactive: 0.564; to `Cc1c(NC(=O)c2cccnc2)c(=O)n(-c2ccccc2)n1C` [Nifenazone], inactive: 1.13.
Turning to `Cc1cn(-c2cc(NC(=O)c3ccc(C)c(Nc4nccc(-c5cccnc5)n4)c3)cc(C(F)(F)F)c2)cn1` [Nilotinib monohydrochloride monohydrate], the “relative GAG core protein HA-SDC1 amount per cell number” value was inactive: 1.28.
Consider `O=c1[nH]cnc2c1ncn2[C@H]1CC[C@@H](CO)O1` [Didanosine], for which the “relative GAG core protein HA-SDC1 amount per cell number” value is inactive: 0.997.
The same measure, in the same setting: under `Cc1ncc([N+](=O)[O-])n1CC(O)CCl` (configuration not stated) [Ornidazole] stands inactive: 0.774.
Still for that read-out and setting: to `NC(CO)(CO)CO` [Trometamol] belongs inactive: 0.856; to `CC(=O)OCC[N+](C)(C)C` [Acetylcholine Chloride], inactive: 1.44.
The same measure, in the same setting: under `C1COC(NC(C2CC2)C2CC2)=N1` [Rilmenidine Phosphate] stands inactive: 0.975; under `NCCCS(=O)(=O)O` [Tramiprosate], inactive: 1.14; under `CC[C@H]1OC(=O)[C@H](C)[C@@H](O[C@H]2C[C@@](C)(OC)[C@@H](O)[C@H](C)O2)[C@H](C)[C@@H](O[C@@H]2O[C@H](C)C[C@H](N(C)C)[C@H]2O)[C@](C)(O)C[C@@H](C)[C@@H]2N[C@@H](COCCOC)O[C@H]([C@H]2C)[C@]1(C)O` [Dirithromycin], inactive: 0.809.
In the case of `CCOC(=O)[C@H](CCc1ccccc1)N[C@@H](C)C(=O)N1[C@H](C(=O)O)C[C@@H]2CCC[C@@H]21` [Ramipril], the “relative GAG core protein HA-SDC1 amount per cell number” value was inactive: 0.838.
Still for that read-out and setting: to `CNS(=O)(=O)Cc1ccc2[nH]cc(CCN(C)C)c2c1` [Sumatriptan Succinate] belongs inactive: 1.43; to `COc1nc(C)cnc1NS(=O)(=O)c1cccnc1-c1ccc(-c2nnco2)cc1` [Zibotentan (ZD4054)], inactive: 1.3; to `Cc1[nH]c(/C=C2\C(=O)Nc3ccccc32)c(C)c1CCC(=O)O` [TSU-68 (SU6668,Orantinib)], inactive: 0.706.
Still for that read-out and setting: under `COC(=O)[C@H](c1ccccc1Cl)N1CCc2sccc2C1` [Clopidogrel] stands active: 0.439; under `N[C@@H](CCC(=O)N[C@@H](CS)C(=O)NCC(=O)O)C(=O)O` [L-Glutathione Reduced], inactive: 1.03.
Consider `COc1ccc(/C=C\c2cc(OC)c(OC)c(OC)c2)cc1OP(=O)(O)O` [Fosbretabulin (Combretastatin A4 Phosphate (CA4P)) Disodium], for which the “relative GAG core protein HA-SDC1 amount per cell number” value was inactive: 0.647.
On to `C=C1CC[C@H](O)C/C1=C/C=C1\CCC[C@]2(C)[C@@H]([C@H](C)/C=C/[C@H](C)C(C)C)CC[C@@H]12` [Vitamin D2 (Ergocalciferol)], for which the “relative GAG core protein HA-SDC1 amount per cell number” value is inactive: 0.541.
On to `OC[C@@H](O)[C@@H](O)[C@H](O)[C@H](O)CO` [D-Mannitol], for which the “relative GAG core protein HA-SDC1 amount per cell number” value is inactive: 0.874.
Still for that read-out and setting: under `Cc1ccc(C(C)C)c(O)c1` [Thymol] stands inactive: 0.94.
For `COc1ccc([C@@H]2Sc3ccccc3N(CCN(C)C)C(=O)[C@@H]2OC(C)=O)cc1` [Diltiazem HCl], the “relative GAG core protein HA-SDC1 amount per cell number” value is inactive: 0.76.
Regarding `COCCCOc1ccnc(C[S+]([O-])c2nc3ccccc3[nH]2)c1C` (configuration not stated) [Rabeprazole], the “relative GAG core protein HA-SDC1 amount per cell number” value is inactive: 0.737.
In the case of `COC(=O)Nc1nc2cc(C(=O)c3ccccc3)ccc2[nH]1` [Mebendazole], the “relative GAG core protein HA-SDC1 amount per cell number” value was active: 0.247.
For `COc1c(O)cc2c(c1O)[C@@H]1O[C@H](CO)[C@@H](O)[C@H](O)[C@H]1OC2=O` [Bergenin], the “relative GAG core protein HA-SDC1 amount per cell number” value was inactive: 0.783.
In the case of `Cc1nc2c([nH]1)-c1ccccc1N(C(=O)c1ccc(NC(=O)c3ccccc3-c3ccccc3)cc1)CC2` [Conivaptan HCl], the “relative GAG core protein HA-SDC1 amount per cell number” value is inactive: 0.627.
Consider `O=C(NCC1CCCCN1)c1cc(OCC(F)(F)F)ccc1OCC(F)(F)F` (configuration not stated) [Flecainide acetate], for which the “relative GAG core protein HA-SDC1 amount per cell number” value is inactive: 0.997.
Same read-out and setting: under `CNC(=C[N+](=O)[O-])NCCSCc1csc(CN(C)C)n1` [Nizatidine] stands inactive: 1.27.
On the same count and under the same terms, under `NCCCC(O)(P(=O)(O)O)P(=O)(O)O` [Alendronate sodium] stands inactive: 1.44; under `Cc1[nH]c(=O)c(C#N)cc1-c1ccc2nccn2c1` [Olprinone Hydrochloride], inactive: 1.49; under `COc1cc(C2Oc3cc([C@H]4Oc5cc(O)cc(O)c5C(=O)[C@@H]4O)ccc3OC2CO)ccc1O` (some centres not stated) [Silymarin], inactive: 0.902.
In the case of `O=C1CCc2ccc(OCCCCN3CCN(c4cccc(Cl)c4Cl)CC3)cc2N1` [Aripiprazole], the “relative GAG core protein HA-SDC1 amount per cell number” value is inactive: 0.693.
Same read-out and setting: under `COc1cc2nccc(Oc3ccc(NC(=O)C4(C(=O)Nc5ccc(F)cc5)CC4)cc3)c2cc1OC` [Cabozantinib malate (XL184)] stands inactive: 0.645; under `Cc1cccc(C)c1NC(=O)C1CCCCN1C` (configuration not stated) [Mepivacaine HCl], inactive: 1.06; under `O=C(NC[C@H](O)CO)c1ccncc1Nc1ccc(I)cc1F`, inactive: 1.12.
On to `CCCCCCOC(=O)NC(=N)c1ccc(NCc2nc3cc(C(=O)N(CCC(=O)OCC)c4ccccn4)ccc3n2C)cc1`, for which the “relative GAG core protein HA-SDC1 amount per cell number” value was inactive: 1.09.
The same measure, in the same setting: to `CCCOC(=O)c1ccc(O)cc1` [Propylparaben] belongs inactive: 0.825; to `CC(C)c1nc(N(C)S(C)(=O)=O)nc(-c2ccc(F)cc2)c1/C=C/[C@@H](O)C[C@@H](O)CC(=O)O` [Rosuvastatin Calcium], inactive: 0.675.
In the case of `C[C@]12CCC(=O)C=C1CC[C@@H]1[C@@H]2[C@@H](O)C[C@@]2(C)[C@H]1CC[C@]2(O)C(=O)CO` [Hydrocortisone], the “relative GAG core protein HA-SDC1 amount per cell number” value was inactive: 1.03.

Source of the values: the supplement of paper PMC12355420.
